Data: PubChem BioAssay (EPA / NIEHS)
For some of these results: Shown are results outside the selection of hits, which stands elsewhere. Inconclusive results are not listed. Only a part is listed here, and it is no random draw. The source made the active and inactive calls. The calls were made as follows, unless noted: active = hit-call score of the fitted dose curve at least 0.9, where 1 is the maximum; inactive = score below 0.9.

Columns and labels:
[1] = target: human Retinoid X Receptor beta (RXRb), RXRB (gene 6257) (UniProt P28702); assay: ATG_RXRb_TRANS: Attagene TRANS-FACTORIAL HepG2 Assay for human Retinoid X Receptor beta (RXRb) (AID 2283013; active = hit-call score of the fitted dose curve at least 0.9, where 1 is the maximum)
UniProt P28702, sequence (P28702 whole entry, looked up, the tested form may be a part): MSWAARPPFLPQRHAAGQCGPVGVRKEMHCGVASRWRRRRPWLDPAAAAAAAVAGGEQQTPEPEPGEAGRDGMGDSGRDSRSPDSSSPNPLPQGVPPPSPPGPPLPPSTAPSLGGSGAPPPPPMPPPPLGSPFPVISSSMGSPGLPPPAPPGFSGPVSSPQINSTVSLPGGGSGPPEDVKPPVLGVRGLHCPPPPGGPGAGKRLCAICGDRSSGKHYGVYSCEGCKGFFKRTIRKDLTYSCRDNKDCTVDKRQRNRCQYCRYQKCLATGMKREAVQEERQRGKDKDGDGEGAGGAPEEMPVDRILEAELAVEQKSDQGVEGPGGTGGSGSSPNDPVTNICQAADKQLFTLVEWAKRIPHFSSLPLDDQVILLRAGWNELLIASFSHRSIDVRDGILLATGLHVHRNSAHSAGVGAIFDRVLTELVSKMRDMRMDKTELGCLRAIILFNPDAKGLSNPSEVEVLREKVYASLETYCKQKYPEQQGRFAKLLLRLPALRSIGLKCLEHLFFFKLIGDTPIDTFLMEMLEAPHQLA
Procedure, shortened: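 Chimeric receptor-Gal4 activity was assessed in transiently transfected human HepG2 cells after 24 h exposure. Transcripts from GAL4-UAS reporters were quantified by fluorescent RT-PCR and capillary electrophoresis, with DMSO as negative control and baseline.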

[2] = read-out: Matrix Metallopeptidase 1 (MMP1), MMP1 (gene 4312); assay: BSK_BE3C_MMP1: BioMAP Diversity Plus: BE3C Assay for Matrix Metallopeptidase 1 (MMP1) Biomarker Activity (AID 2283024); conditions: actives raise or lower the signal; primary human bronchial epithelial cells
Procedure, shortened: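 MMP1 signal, measured by ELISA after a 24 h chemical exposure of human primary bronchial epithelial cells, is analysed with bidirectional fitting using DMSO as negative control.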

[3] = ACEA_AR_antagonist_AUC_viability: ACEA Biosciences xCELLigence Real-Time Cell Analysis on Androgen Receptor Antagonism for Viability (AID 2283776; active = hit-call score of the fitted dose curve at least 0.9, where 1 is the maximum;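 also: 22Rv1 human prostate cancer cells growing on impedance electrode plates; area under impedance growth curve at 80 h after dosing as viability; hits lower the growth signal relative to DMSO meaning cytotoxicity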)
Procedure, shortened: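 Real-time electrical impedance tracks 22Rv1 proliferation after continuous compound exposure (top 100 uM final, 1:4 steps, 8 concentrations). The 80 h area-under-curve serves as the cytotoxicity readout relative to DMSO.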

[4] = target: human Vitamin D Receptor (VDR), VDR (gene 7421) (UniProt P11473); assay: ATG_VDR_TRANS: Attagene TRANS-FACTORIAL HepG2 Assay for human Vitamin D Receptor (VDR) (AID 2283022; active = hit-call score of the fitted dose curve at least 0.9, where 1 is the maximum)
UniProt P11473, sequence (P11473 whole entry, looked up, the tested form may be a part): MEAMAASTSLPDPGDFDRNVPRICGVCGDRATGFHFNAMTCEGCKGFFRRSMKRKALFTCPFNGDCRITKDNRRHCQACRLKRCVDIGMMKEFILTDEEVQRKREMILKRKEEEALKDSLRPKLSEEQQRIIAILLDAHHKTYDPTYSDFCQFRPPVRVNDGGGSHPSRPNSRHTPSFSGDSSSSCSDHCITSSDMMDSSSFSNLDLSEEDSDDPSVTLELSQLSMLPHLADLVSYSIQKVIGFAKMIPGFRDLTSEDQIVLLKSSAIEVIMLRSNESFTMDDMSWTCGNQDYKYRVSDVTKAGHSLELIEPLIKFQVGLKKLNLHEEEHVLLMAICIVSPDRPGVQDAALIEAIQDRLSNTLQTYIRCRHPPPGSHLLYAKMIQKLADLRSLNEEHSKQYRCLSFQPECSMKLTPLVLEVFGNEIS
Procedure, shortened: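 HepG2 cells were transiently transfected with GAL4-UAS reporter units and a chimeric VDR-Gal4 construct, then dosed for 24 hours. Reporter mRNA was quantified by RT-PCR, fluorescent labeling, HpaI digestion and capillary electrophoresis; gain of signal analysed vs DMSO.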

[5] = BSK_3C_SRB: Viability Assessment in the BioMAP Diversity Plus: 3C Assay (AID 2283023); conditions: primary human endothelial cells (HUVEC);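 also: fitted both ways against DMSO so a hit may be signal rise or drop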
Procedure, shortened: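 Human umbilical vein endothelial cells in the 3C system, treated 24 h. Total protein measured by 0.1% sulforhodamine B staining after 10% TCA fixation, read at 560 nm; bidirectional fit versus DMSO.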

[6] = read-out: Interferon-gamma inducible Protein 10 (IP10), CXCL10 (gene 3627); assay: BSK_BE3C_IP10: BioMAP Diversity Plus: BE3C Assay for Interferon-gamma inducible Protein 10 (IP10) Biomarker Activity (AID 2283034); conditions: actives raise or lower the signal; primary human bronchial epithelial cells
Procedure, shortened: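 IP-10 quantified by ELISA serves as the endpoint. Cells: primary human bronchial epithelium, read 24 h after compound addition. Activity is derived by bidirectional fitting with DMSO as negative control.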

[7] = read-out: Monokine induced gamma interferon (MIG), CXCL9 (gene 4283); assay: BSK_CASM3C_MIG: BioMAP Diversity Plus: CASM3C Assay for Monokine induced gamma interferon (MIG) Biomarker Activity (AID 2283048); conditions: actives raise or lower the signal; primary human coronary artery smooth muscle cells;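 also: MIG protein level measured by ELISA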
[8] = BSK_MyoF_SRB: Viability Assessment in the BioMAP Diversity Plus: MyoF Assay (AID 2284267); conditions: primary human lung fibroblasts
Procedure, shortened: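 Confluent human lung fibroblasts were exposed to test chemicals for 24 h. Parallel wells were then fixed in 10% TCA, stained with 0.1% sulforhodamine B and measured at 560 nm. DMSO served as baseline for curve fitting.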

[9] = target: human Thyroid Receptor alpha (THRa1), THRA (gene 7067) (UniProt P10827); assay: ATG_THRa1_TRANS: Attagene TRANS-FACTORIAL HepG2 Assay for human Thyroid Receptor alpha (THRa1) (AID 2283014; active = hit-call score of the fitted dose curve at least 0.9, where 1 is the maximum)
UniProt P10827, sequence (P10827 whole entry, looked up, the tested form may be a part): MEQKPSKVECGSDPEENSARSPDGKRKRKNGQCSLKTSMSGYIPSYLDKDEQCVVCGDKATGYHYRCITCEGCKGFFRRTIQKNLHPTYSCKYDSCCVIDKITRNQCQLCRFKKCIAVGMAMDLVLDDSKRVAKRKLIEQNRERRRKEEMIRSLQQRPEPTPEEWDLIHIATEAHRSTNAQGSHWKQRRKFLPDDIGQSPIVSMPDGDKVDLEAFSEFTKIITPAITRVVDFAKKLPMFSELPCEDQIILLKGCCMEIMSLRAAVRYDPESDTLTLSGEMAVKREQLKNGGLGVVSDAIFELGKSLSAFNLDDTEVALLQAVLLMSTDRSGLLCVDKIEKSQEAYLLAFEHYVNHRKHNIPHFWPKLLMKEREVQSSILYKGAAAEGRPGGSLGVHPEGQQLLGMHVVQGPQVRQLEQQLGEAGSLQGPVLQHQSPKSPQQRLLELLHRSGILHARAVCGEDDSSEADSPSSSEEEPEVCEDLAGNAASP
Procedure, shortened: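 HepG2 cells transiently transfected with chimeric NR-Gal4 and GAL4-UAS reporter units, dosed 24 h. Reporter mRNA quantified by RT-PCR, fluorescent labeling, HpaI digestion and capillary electrophoresis; gain-of-signal fit versus DMSO.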

[10] = read-out: Monocyte Chemoattractant Protein-1 (MCP1), CCL2 (gene 6347); assay: BSK_4H_MCP1: BioMAP Diversity Plus: 4H Assay for Monocyte Chemoattractant Protein-1 (MCP1) Biomarker Activity (AID 2283018); conditions: actives raise or lower the signal; primary human endothelial cells (HUVEC)
Procedure, shortened: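 Endothelial cells from umbilical vein were treated with test chemical, then after 24 h MCP-1 levels were quantified by ELISA; endpoint values came from bidirectional fitting with DMSO as baseline of activity.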

[11] = read-out: E-selectin (Homo sapiens) (UniProt P16581); assay: BSK_3C_Eselectin: BioMAP Diversity Plus: 3C Assay for Eselectin Biomarker Activity (AID 2283015); conditions: actives raise or lower the signal; primary human endothelial cells (HUVEC)
UniProt P16581, sequence (P16581 whole entry, looked up): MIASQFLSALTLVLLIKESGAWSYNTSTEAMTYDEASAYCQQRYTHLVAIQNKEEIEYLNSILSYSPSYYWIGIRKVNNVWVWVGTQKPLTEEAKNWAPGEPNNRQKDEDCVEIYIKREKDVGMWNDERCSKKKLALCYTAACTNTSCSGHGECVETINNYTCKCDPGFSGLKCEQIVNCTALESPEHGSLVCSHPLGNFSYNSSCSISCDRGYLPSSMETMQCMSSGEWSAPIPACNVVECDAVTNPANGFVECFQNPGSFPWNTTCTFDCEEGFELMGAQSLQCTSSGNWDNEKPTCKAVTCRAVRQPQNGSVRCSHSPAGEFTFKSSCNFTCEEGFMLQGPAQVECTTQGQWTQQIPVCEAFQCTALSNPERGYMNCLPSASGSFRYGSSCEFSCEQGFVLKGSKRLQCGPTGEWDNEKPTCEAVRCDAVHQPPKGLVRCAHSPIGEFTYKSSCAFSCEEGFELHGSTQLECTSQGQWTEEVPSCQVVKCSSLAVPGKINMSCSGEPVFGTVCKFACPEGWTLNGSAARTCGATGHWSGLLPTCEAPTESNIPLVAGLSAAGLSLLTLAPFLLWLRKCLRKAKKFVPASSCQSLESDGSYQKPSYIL
Procedure, shortened: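 Primary human umbilical vein endothelial cells (3C system), read 24 h after compound addition; E-selectin measured by ELISA. Bidirectional curve fitting against DMSO baseline; cytotoxicity by parallel SRB total-protein staining.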

[12] = read-out: Pselectin, SELP (gene 6403); assay: BSK_4H_Pselectin: BioMAP Diversity Plus: 4H Assay for Pselectin Biomarker Activity (AID 2283026); conditions: actives raise or lower the signal; primary human endothelial cells (HUVEC)
Procedure, shortened: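 Endothelial primary cells (human umbilical vein) are dosed, incubated 24 h, and assayed for surface P-selectin by ELISA; responses in either direction are fitted relative to the DMSO negative control.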

[13] = BSK_BE3C_SRB: Viability Assessment in the BioMAP Diversity Plus: BE3C Assay (AID 2283028); conditions: primary human bronchial epithelial cells
Procedure, shortened: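 Human bronchial epithelial primary cells in confluent culture, 24 h after chemical dosing; total protein by 0.1% SRB staining after 10% TCA fixation, read at 560 nm. Bidirectional fitting versus DMSO baseline.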

[14] = read-out: Interleukin-8 (IL8), CXCL8 (gene 3576); assay: BSK_hDFCGF_IL8: BioMAP Diversity Plus: hDFCGF Assay for Interleukin-8 (IL8) Biomarker Activity (AID 2283058); conditions: actives raise or lower the signal; primary human foreskin fibroblasts
Procedure, shortened: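 Primary human foreskin fibroblasts (hDFCGF system) dosed with chemical; IL-8 measured by ELISA 24 hours later. Bidirectional curve fitting relative to DMSO baseline; cytotoxicity tracked in parallel cultures by SRB total protein staining.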

CD38, CD38 (gene 952) = assay: BSK_SAg_CD38: BioMAP Diversity Plus: SAg Assay for CD38 Biomarker Activity (AID 2283087); conditions: actives raise or lower the signal; primary human HUVEC with PBMC
Procedure, shortened: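 CD38 quantified by ELISA (fluorescence) in a superantigen-activated endothelial cell–PBMC co-culture at 24 h post-dose. Activity fitted in both directions relative to DMSO; parallel SRB and Alamar Blue cytotoxicity read-outs.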

[15] = read-out: Interleukin-8 (IL8), CXCL8 (gene 3576); assay: BSK_MyoF_IL8: BioMAP Diversity Plus: MyoF Assay for Interleukin-8 (IL8) Biomarker Activity (AID 2284261); conditions: primary human lung fibroblasts
Procedure, shortened: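 Human lung fibroblast (MyoF system) cultures dosed for 24 h, then IL-8 measured by ELISA. Response taken relative to DMSO; parallel SRB total-protein staining for cytotoxicity.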

With `CCCCCCCCCCCC` the outcome [1] was “inactive”, the outcome [2] was “inactive” and the outcome [3] was “inactive”.

With `Clc1cc(Cl)c2c(c1)N=C1CCCCCN1C2` the outcome [4] was “inactive”.

In the case of `Clc1ccc(Nc2nnc(Cc3ccncc3)c3ccccc23)cc1`, the outcome [5] is reported as “inactive”, the outcome [6] is reported as “inactive” and the outcome [7] is reported as “inactive”. For the same molecule, the outcome [8] was “inactive”.

For `CCCCCCOC(=O)CCCCC`, the outcome [9] was “inactive”.

For `CCCCCCCCCCCCCCCC(=O)OC/C=C(C)/C=C/C=C(C)/C=C/C1=C(C)CCCC1(C)C`, the outcome [10] was “inactive”.

For `CC1=NN(c2ccccc2)C(=O)C1`, the outcome [9] was “inactive”.

For `C=C[C@](C)(O)CC[C@@H]1[C@@]2(C)CCCC(C)(C)[C@@H]2CC[C@@]1(C)O`, the outcome [4] was “inactive”.

For `COCc1c(C(C)C)nc(C(C)C)c(/C=C/[C@@H](O)C[C@@H](O)CC(=O)O)c1-c1ccc(F)cc1`, the AC50 [11] was active: 1830 nM, the AC50 [12] was active: 1830 nM and the outcome [13] was “inactive”. The outcome [14] was “inactive”, the AC50 (CD38, CD38 (gene 952)) was active: 1830 nM and the AC50 [15] was active: 7.77 nM. The AC50 [8] was active: 76.6 nM.
